{"source": "patent US20080112933A1", "about": "(priority 2004, published 2008)", "key": {"bone marrow lin− cells [1]": {"tested_on": "bone marrow lin− cells", "assay_type": "cell-based, mouse"}, "bone marrow lin− cells [2]": {"tested_on": "bone marrow lin− cells", "conditions": "mouse, in vivo"}, "lymph node lymphocytes": {"tested_on": "lymph node lymphocytes", "conditions": "mouse, in vivo"}}, "data": [{"compound": "Cc1ccc(C(=O)Nc2ccc(S(=O)(=O)O)c3cc(S(=O)(=O)O)cc(S(=O)(=O)O)c23)cc1NC(=O)c1cccc(NC(=O)Nc2cccc(C(=O)Nc3cc(C(=O)Nc4ccc(S(=O)(=O)O)c5cc(S(=O)(=O)O)cc(S(=O)(=O)O)c45)ccc3C)c2)c1", "note": "[suramin]", "values": [{"measurement": "transmigration towards SDF-1α", "setting": "bone marrow lin− cells [1]", "value": "no effect on the transmigration"}, {"measurement": "homing of cells to the bone marrow", "setting": "bone marrow lin− cells [2]", "value": "did result in an impairment of the cells to home to the bone marrow"}, {"measurement": "homing of lymphocytes to the lymph nodes", "setting": "lymph node lymphocytes", "value": "no effect on their homing to the lymph nodes"}]}]}
